This note sets out measurements from US20250270341A1 (Alector, published 2025).

The target of one experiment is T1, muCD98hc ECD Avi-His (mouse, UniProt P10852 100-526).
T1 construct: biotinylated on the Avi tag where captured on streptavidin; also called Mouse CD98-AVI-His; Mouse CD98hc-AVI-His
T1 sequence: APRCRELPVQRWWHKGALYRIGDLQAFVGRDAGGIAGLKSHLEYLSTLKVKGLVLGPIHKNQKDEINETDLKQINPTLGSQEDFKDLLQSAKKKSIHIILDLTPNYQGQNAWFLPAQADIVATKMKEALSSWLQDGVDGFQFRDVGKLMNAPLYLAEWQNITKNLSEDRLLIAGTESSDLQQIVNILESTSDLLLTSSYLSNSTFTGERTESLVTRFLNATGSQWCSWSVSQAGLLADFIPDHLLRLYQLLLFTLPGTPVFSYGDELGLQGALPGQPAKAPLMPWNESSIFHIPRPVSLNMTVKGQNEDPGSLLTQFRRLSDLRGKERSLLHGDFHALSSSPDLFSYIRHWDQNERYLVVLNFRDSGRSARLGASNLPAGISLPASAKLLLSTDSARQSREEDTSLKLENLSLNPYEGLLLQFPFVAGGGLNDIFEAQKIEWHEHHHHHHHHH
As to the kind of experiment: ELISA, 1 ug/ml. Here is the method: (§1) To determine binding retention of reformatted 2+1 anti-CD98hc bispecific antibodies by ELISA, high binding ELISA plates (Thermo Fisher) were coated with streptavidin (1 μg/ml, Thermo Fisher) overnight at 4° C. Plates were then washed three times with phosphate buffered saline with 0.05% tween-20 (PBST) and incubated with block buffer (PBS+1% BSA, 1 h, room temperature). Plates were washed three times again with PBST and incubated with biotinylated human, cyno, and mouse CD98hc and an irrelevant antigen, human transferrin receptor (1 μg/ml, 1 h, room temperature). Plates were washed three times again with PBST and incubated with anti-CD98hc antibodies (1 μg/ml, 1 h, room temperature). Plates were washed three times again with PBST and incubated with a secondary detection antibody, anti-human horseradish peroxidase conjugated antibody (1:5000 dilution, 30 min, room temperature). Plates were washed three times one last time and incubated with TMB-ELISA Substrate Solution (Thermo Fisher) and then quenched with H₂SO₄. Anti-CD98hc binding was then analyzed by quantifying optical density at 450 nm (OD₄₅₀) using the SpectraMax M5 (Molecular Devices). The binding characteristics of the various 2+1 anti-CD98hc bispecific antibodies to CD98hc (human, cyno, mouse) and control human TfR are summarized below in Table 16, shown as fold-change relative to isotype hIgG.
(In an ELISA, binding on a coated surface is turned into a signal by an enzyme label.)

For experiment [1], the target named is T2, Human TfR-AVI-His (control) (human, UniProt P02786).
T2 construct: control protein; also called Avi-His-tagged human TfR; human transferrin receptor
Description: ELISA, 1 ug/ml. Here is the method: as §1

For experiment [2], the target named is T3, Full length mouse CD98hc on CHO cells (mouse, UniProt P10852 1-526).
T3 construct: CHO cells stably overexpressing it; also called CHO-mouse CD98hc; CHO-mCD98hc
T3 sequence: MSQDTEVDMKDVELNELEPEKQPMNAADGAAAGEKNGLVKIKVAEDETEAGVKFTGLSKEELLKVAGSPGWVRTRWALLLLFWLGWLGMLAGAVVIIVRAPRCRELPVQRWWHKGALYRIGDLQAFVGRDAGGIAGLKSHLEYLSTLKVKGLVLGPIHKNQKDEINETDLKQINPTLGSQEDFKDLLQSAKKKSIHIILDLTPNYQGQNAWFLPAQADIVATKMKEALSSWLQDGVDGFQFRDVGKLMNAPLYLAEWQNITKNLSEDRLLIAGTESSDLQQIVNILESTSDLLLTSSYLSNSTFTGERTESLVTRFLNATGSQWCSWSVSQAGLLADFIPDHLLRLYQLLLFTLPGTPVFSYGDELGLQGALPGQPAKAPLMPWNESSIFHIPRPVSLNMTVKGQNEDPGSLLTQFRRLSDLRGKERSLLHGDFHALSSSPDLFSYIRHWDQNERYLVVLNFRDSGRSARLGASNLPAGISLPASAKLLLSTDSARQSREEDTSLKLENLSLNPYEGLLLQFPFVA
Description: FACS, 5 ug/ml. Here is the method:
To determine binding retention of 2+1 anti-CD98hc bispecific antibodies by FACS, antibodies were evaluated for binding to HCMEC/D3 cells (a cell line derived from human brain endothelial cells), overexpressing human and mouse CD98hc CHO cell lines, and parental CHO cells for non-specific binding. Cells were seeded in tissue culture plates (50,000 cells/well) and washed and resuspended in FACS buffer (PBS+2% BSA+1 mM EDTA). The 2+1 anti-CD98hc bispecific antibodies were then incubated with cells (5 μg/ml, 1 hr, on ice) and washed twice with FACS buffer. Cells were then incubated with allophycocyanin conjugated anti-mouse secondary antibody (Jackson Immunoresearch) (1:1000, 30 min, on ice) and then washed twice with FACS buffer. Next, cells were resuspended in FACS buffer supplemented with 0.5% propidium iodide (Thermo Fisher). Anti-CD98hc binding was then analyzed on the iQue flow cytometer (IntelliCyt) by measuring the Mean Fluorescent Intensity (MFI). FACS data are summarized below in Table 17, shown as MFI fold-change relative to isotype hIgG1 control.
(In general: A flow cytometer gives signals particle by particle.)

T2 sequence (P02786 89-760 limits assumed): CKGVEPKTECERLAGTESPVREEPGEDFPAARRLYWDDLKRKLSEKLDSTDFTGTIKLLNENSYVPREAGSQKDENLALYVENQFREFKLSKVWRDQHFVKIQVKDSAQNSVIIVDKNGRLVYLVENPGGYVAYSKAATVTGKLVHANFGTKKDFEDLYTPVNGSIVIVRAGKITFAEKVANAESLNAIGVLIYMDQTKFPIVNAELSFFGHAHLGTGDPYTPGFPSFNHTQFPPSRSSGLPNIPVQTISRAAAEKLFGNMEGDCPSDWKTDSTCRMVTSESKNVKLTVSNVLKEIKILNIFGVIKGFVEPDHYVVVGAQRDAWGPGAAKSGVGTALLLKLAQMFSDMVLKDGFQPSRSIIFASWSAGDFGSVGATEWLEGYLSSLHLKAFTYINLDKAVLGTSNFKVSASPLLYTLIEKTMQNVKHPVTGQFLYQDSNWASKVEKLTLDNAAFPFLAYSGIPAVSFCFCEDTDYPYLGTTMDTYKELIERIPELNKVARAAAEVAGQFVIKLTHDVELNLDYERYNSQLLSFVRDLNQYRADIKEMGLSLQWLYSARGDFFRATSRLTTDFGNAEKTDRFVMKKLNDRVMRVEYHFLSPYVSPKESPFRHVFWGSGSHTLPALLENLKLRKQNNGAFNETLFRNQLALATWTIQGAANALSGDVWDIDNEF

B1: CD98hc.04.047 (2+1 bispecific antibody) (bispecific antibody)
heavy 1: EVRLLESGGGLVQPGGSLRLSCAASGFTFSNYAMGWVRQAPGKGLEWVSAISGSGGSTYYADSVKGRFTTSRDDSKNALYLQMNSLRAEDTAVYYCARGGPGWYAADVWGQGTTVTVSSASTKGPSVFPLAPSSKSTSGGTAALGCLVKDYFPEPVTVSWNSGALTSGVHTFPAVLQSSGLYSLSSVVTVPSSSLGTQTYICNVNHKPSNTKVDKKV[here human IgG1 Fc with changes without letters]GGGGSGGGGSGGGGSEVQLQESGPSLVKPSQTLSLTCSVTGDSITSGYWNWIRKFPGNKLEYMGYISYSGSTYYNPSLKGRVSITRDTSKNQYYLQLNSVTTEDTATYYCQRHVIYDYTWFAYWGQGTLVTVSAGGSEGKSSGSGSESKSTGGSQIVLTQSPAIMSASPGEKVTISCSASSSVGYMYWLQQKPGSSPKPWIYRTSILASGVPARFSGSGSGTSYSLTISSMEAEDAATYYCQQYQSYPLTFGAGTKLELK
heavy 2: EVRLLESGGGLVQPGGSLRLSCAASGFTFSNYAMGWVRQAPGKGLEWVSAISGSGGSTYYADSVKGRFTTSRDDSKNALYLQMNSLRAEDTAVYYCARGGPGWYAADVWGQGTTVTVSS[here human IgG1 constant region with changes without letters]
light: DIQMTQSPSSLSASVGDRVTITCRASQSISSYLNWYQQKPGKAPKLLIYAASSLQSGVPSRFSGSGSGTDFTLTISSLQPEDFATYYCQQADLPAFAFGGGTKVEIKRTVAAPSVFIFPPSDEQLKSGTASVVCLLNNFYPREAKVQWKVDNALQSGNSQESVTEQDSKDSTYSLSSTLTLSKADYEKHKVYACEVTHQGLSSPVTKSFNRGEC
In the case of B1, the “ELISA fold-change relative to isotype hIgG” value (with muCD98hc ECD Avi-His; in experiment [1]) was 1.3 in each case. Moreover, in experiment [2], the “MFI fold-change relative to isotype hIgG1” value came to 0.6.

B2: CD98hc.04.065 (2+1 bispecific antibody) (bispecific antibody)
heavy 1: EVRLLESGGGLVQPGGSLRLSCAASGFTFSNYAMGWVRQAPGKGLEWVSAISGSGGSTYYADSVKGRFTTSRDDSKNALYLQMNSLRAEDTAVYYCARGGPGWYAADVWGQGTTVTVSSASTKGPSVFPLAPSSKSTSGGTAALGCLVKDYFPEPVTVSWNSGALTSGVHTFPAVLQSSGLYSLSSVVTVPSSSLGTQTYICNVNHKPSNTKVDKKV[here human IgG1 Fc with changes without letters]GGGGSGGGGSGGGGSEVQLQESGPSLVKPSQTLSLTCSVTGDSITSGYWNWIRKFPGNKLEYMGYISYSGRTYYNPSLKSRVSITRDTSKNQYYLQLNSVTTEDTATYYCQRHVIYDYTWFAYWGQGTLVTVSAGGSEGKSSGSGSESKSTGGSQIVLTQSPAIMSASPGEKVTISCSASSSVHYMYWFQQKPGSSPKPWIYRTSILASGVPDRFSGSGSGTSYSLTISSMEAEDAATYYCQQYQSYPLTFGAGTKLELK
heavy 2: EVRLLESGGGLVQPGGSLRLSCAASGFTFSNYAMGWVRQAPGKGLEWVSAISGSGGSTYYADSVKGRFTTSRDDSKNALYLQMNSLRAEDTAVYYCARGGPGWYAADVWGQGTTVTVSS[here human IgG1 constant region with changes without letters]
light: DIQMTQSPSSLSASVGDRVTITCRASQSISSYLNWYQQKPGKAPKLLIYAASSLQSGVPSRFSGSGSGTDFTLTISSLQPEDFATYYCQQADLPAFAFGGGTKVEIKRTVAAPSVFIFPPSDEQLKSGTASVVCLLNNFYPREAKVQWKVDNALQSGNSQESVTEQDSKDSTYSLSSTLTLSKADYEKHKVYACEVTHQGLSSPVTKSFNRGEC
As to B2, the “ELISA fold-change relative to isotype hIgG” value (in the experiment with muCD98hc ECD Avi-His; in experiment [1]) was 2 each time. Further, the “MFI fold-change relative to isotype hIgG1” value in experiment [2] was determined as 2.1.
